# In all, about 310,000 compounds went through this assay and about 2,200 (0.71%) showed an effect of 50% or more. The effect is printed as a negative number. Some of the results follow.
# Biological target: human ether-à-go-go-related gene (hERG) potassium channel (human, UniProt Q12809)
# Test: primary screen, population patch clamp on CHO cells stably expressing hERG
# Chain of human ether-à-go-go-related gene (hERG) potassium channel (Q12809 whole entry, looked up): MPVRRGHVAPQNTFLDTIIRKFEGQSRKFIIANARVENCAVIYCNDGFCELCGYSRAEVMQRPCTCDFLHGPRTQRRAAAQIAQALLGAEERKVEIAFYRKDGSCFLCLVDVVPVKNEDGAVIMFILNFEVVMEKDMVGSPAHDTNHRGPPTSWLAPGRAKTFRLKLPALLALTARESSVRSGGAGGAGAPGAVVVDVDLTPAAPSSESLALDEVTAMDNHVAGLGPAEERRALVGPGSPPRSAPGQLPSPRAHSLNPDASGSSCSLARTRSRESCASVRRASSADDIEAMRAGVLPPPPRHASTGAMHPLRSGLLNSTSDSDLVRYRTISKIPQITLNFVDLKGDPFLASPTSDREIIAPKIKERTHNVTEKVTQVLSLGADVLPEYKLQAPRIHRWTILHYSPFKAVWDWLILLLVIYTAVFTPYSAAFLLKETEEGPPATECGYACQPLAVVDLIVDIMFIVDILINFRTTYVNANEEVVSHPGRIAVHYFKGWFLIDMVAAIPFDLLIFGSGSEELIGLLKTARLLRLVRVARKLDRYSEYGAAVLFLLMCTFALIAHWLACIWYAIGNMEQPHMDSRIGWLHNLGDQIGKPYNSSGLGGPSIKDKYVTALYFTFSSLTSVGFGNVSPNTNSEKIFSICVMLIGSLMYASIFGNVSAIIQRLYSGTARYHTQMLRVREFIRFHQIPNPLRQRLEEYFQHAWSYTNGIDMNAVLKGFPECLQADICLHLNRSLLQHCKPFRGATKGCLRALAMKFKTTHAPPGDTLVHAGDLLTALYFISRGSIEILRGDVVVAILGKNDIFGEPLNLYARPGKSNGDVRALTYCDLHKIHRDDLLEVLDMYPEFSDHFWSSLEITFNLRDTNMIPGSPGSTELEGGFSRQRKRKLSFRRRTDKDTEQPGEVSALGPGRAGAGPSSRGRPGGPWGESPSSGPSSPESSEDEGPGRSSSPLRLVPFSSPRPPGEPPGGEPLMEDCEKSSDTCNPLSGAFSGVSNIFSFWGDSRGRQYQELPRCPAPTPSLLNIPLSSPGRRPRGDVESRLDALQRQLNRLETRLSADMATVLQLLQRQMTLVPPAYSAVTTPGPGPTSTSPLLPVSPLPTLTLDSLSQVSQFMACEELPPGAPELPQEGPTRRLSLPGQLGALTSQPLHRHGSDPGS
row,SMILES,"hERG current change (%, negative = inhibition) at 1uM"
1,N#Cc1ccc(NC(=O)Cn2cnc(S(=O)(=O)N3CCc4ccccc43)c2)cc1,8.39%
2,COc1ccc(C2(C)NC(=O)N(Cc3cc(Cl)cc4c3OCOC4)C2=O)cc1OC (stereo not shown),11.7%
3,CCCCC(=O)NC(c1ccccc1OC)c1ccc2cccnc2c1O (stereo not shown),-0.281%
4,Cc1ccc(Oc2nc3ccccc3n3c(C)nnc23)cc1,14.5%
5,CC(=O)Oc1ccccc1C(=O)Oc1ccc(/C=N/n2cnnc2)cc1,2.63%
6,CC(Sc1n[nH]c(-c2ccccc2F)n1)C(=O)Nc1ccc(S(N)(=O)=O)cc1 (stereo not shown),15.1%
7,O=[N+]([O-])c1ccc2c(c1)S(=O)c1ccccc1-2 (stereo not shown),13.9%
8,O=C(NCC(=O)N(c1ccc(Cl)cc1)C(C(=O)NC1CCCC1)c1cccnc1)c1ccco1 (stereo not shown),16.6%
9,COc1ccc(/C=N/n2cnc3c(sc(=S)n3-c3ccccc3)c2=O)cc1,11.5%
10,O=c1[nH]c(C2CCCN(S(=O)(=O)c3ccccc3)C2)nc2c1nnn2Cc1ccccc1 (stereo not shown),6.49%
11,CN1C(=O)C(CC(=O)NCCc2ccccc2)N(NC(=O)c2ccc(Cl)cc2)C1=S (stereo not shown),9.39%
12,Cc1occc1C(=O)N1CCN(c2ccc(Cl)c(Cl)c2)CC1,7.41%
13,C/C(CC(=O)NCc1ccco1)=N\NC(=O)COc1ccc(C)cc1,4.8%
14,CC(=O)N1CCN(S(=O)(=O)c2cccc(C(=O)NC3CCCc4ccccc43)c2)CC1 (stereo not shown),5.03%
15,CC1=C(C(=O)OCc2ccccc2)C(c2ccc3c(c2)OCO3)NC(=O)N1CCCC(=O)O (stereo not shown),13.6%
16,O=S1(=O)CCC(NC(=S)NCCNC(=S)NC2CCS(=O)(=O)C2)C1 (stereo not shown),2.54%
17,CN1CC2(Cc3c1ccc1ccccc31)C(=O)OC(C)(C)OC2=O,8.53%
18,CC(C)C1/C(=N/O)CC(c2ccccc2)NC1c1ccccc1 (stereo not shown),9.65%
19,O=C(NCCCl)Nc1cccnc1Cl,11%
20,CCOC(=O)c1ccc(NC(=S)N2CCN(CCN=CC3=C(O)CC(c4ccccc4)CC3=O)CC2)cc1 (stereo not shown),8.25%
21,COc1ccc(NC(=O)Nc2ccccc2F)cc1Cl,15%
22,COc1cc(C(=S)N2CCC(Cc3ccccc3)CC2)ccc1OCC(N)=O,3.73%
23,Cc1cc(C)cc(NC(=O)N2C3CCCC2CC(NC(=O)C2CC2)C3)c1 (stereo not shown),11.3%
24,Cc1ccc(S(=O)(=O)NC(=O)c2ccccc2C)cc1,17%
25,COC(=O)c1ccc(Sc2ccccc2NS(=O)(=O)c2ccc(C)cc2)nc1,6.89%
26,Cc1ccc(S(=O)(=O)N2CCCC2C(=O)NCc2ccc3c(c2)OCO3)cc1 (stereo not shown),8.35%
27,Cc1ccc(NC(=O)CN2C(=O)N/C(=C/c3ccc4c(c3)OCCO4)C2=O)cc1,14.8%
28,O=Cc1cc(CCC(=O)O)ccc1O,9.13%

row,SMILES,"hERG current change (%, negative = inhibition) at 1uM"
1,O=C(N/N=C/c1ccc(Cl)cc1)c1ccc2c(c1)OCO2,10.9%
2,Cc1ccc2c(c1)=C(c1ccccc1)N(O)CC(=O)N=2,18.8%
3,O=C(CNS(=O)(=O)c1ccc(Cl)cc1)NNC(=O)c1cccnc1,10%
4,Cc1ccc(S(=O)(=O)N2CCC(=O)N(C(COC(=O)Nc3ccccc3)Cc3ccccc3)CC2)cc1 (stereo not shown),14.7%
5,COc1ccc2c(C)c(CCC(=O)NCCCN3CCCC3=O)c(=O)oc2c1C,1.59%
6,O=C(Nc1cnn(Cc2ccccc2)c1)c1cc2nc(-c3ccco3)cc(C(F)(F)F)n2n1,6.86%
7,CCOc1cc(C(=O)Nc2ncccn2)cc(OCC)c1OCC,8.97%
8,CCCOc1ccc(C(=O)Nc2ccc(NC(=O)c3cccs3)cc2)cc1,14%
9,O=C(Nc1cccc(F)c1)N1CCN(C/C=C/c2ccccc2)CC1,-19.1%
10,O=C(Nc1ncc(Cc2ccccc2Cl)s1)c1ccc(-c2cccc([N+](=O)[O-])c2)o1,10.7%
11,COc1ccccc1C1C2=C(CC(C)(C)CC2=O)Nc2nnnn21 (stereo not shown),19.7%
12,CCOc1ccccc1Nc1ncccc1C(=O)N1CCCC1,16.9%
13,CC(=O)Oc1cccc(C(=O)Nc2ccc3c(c2)C(=O)N(CC2CCCO2)C3=O)c1 (stereo not shown),8.31%
14,CCN(C1CCCCC1)S(=O)(=O)c1cc(C)ccc1OC,13.4%
15,Cc1ccc(S(N)(=O)=O)cc1NC(=O)c1ccc2c3c(cccc13)CC2,1.81%
16,COc1cccc(CN(C)C(=O)c2csc3c2CCCC3)c1OC,2.1%
17,Cc1c(-n2c(-c3ccccc3Cl)n[nH]c2=S)c(=O)n(-c2ccccc2)n1C,14.1%
18,Clc1c2c(nc3ccccc13)CCC2,9.54%
19,C=C(C)CSc1nnc(-c2ccc(C)cc2)n1N,11.3%
20,O=C(c1ccco1)N1CCN(c2ccc(Cl)cc2)CC1,-5.03%
21,O=C(Nn1cc(C(=O)Nc2ccc(F)cc2F)c2ccccc2c1=O)c1cnccn1,12.8%
22,COCCCNC(=O)CN(CCc1ccccc1)S(=O)(=O)c1ccc(OC)cc1,-2.55%
23,COc1ccccc1/C=C/C(=O)OC(C)CN1CCCCC1.Cl (stereo not shown),12.9%
24,O=C(CN(c1ccc([N+](=O)[O-])cc1)S(=O)(=O)c1ccccc1)N1CCCCC1,-0.85%
25,CN(CC(=O)Nc1ccc2c(c1)OCO2)S(=O)(=O)c1cccs1,3.55%
26,Cc1nn(Cc2ccccc2)c(C)c1C=C1C(=O)NC(=S)NC1=O,9.9%
27,Cc1c(S(=O)(=O)Nc2cccc3ccccc23)c(=O)n(C)c(=O)n1C,13.2%

# Source: publication PMC4336329 (PLoS ONE, 2015)
